Hit rate of the full screen: of about 310,000 compounds, about 14,000 (4.5%) showed an effect of 50% or more. Effects have a minus sign here. Some of the results follow.
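Further: peak tail current of the secondary pulse compared with the same well before compound.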

The assay deals with human ether-à-go-go-related gene (hERG) potassium channel (human, UniProt Q12809). Kind of assay: primary screen, population patch clamp on CHO cells stably expressing hERG.
human ether-à-go-go-related gene (hERG) potassium channel, sequence (Q12809 whole entry, looked up): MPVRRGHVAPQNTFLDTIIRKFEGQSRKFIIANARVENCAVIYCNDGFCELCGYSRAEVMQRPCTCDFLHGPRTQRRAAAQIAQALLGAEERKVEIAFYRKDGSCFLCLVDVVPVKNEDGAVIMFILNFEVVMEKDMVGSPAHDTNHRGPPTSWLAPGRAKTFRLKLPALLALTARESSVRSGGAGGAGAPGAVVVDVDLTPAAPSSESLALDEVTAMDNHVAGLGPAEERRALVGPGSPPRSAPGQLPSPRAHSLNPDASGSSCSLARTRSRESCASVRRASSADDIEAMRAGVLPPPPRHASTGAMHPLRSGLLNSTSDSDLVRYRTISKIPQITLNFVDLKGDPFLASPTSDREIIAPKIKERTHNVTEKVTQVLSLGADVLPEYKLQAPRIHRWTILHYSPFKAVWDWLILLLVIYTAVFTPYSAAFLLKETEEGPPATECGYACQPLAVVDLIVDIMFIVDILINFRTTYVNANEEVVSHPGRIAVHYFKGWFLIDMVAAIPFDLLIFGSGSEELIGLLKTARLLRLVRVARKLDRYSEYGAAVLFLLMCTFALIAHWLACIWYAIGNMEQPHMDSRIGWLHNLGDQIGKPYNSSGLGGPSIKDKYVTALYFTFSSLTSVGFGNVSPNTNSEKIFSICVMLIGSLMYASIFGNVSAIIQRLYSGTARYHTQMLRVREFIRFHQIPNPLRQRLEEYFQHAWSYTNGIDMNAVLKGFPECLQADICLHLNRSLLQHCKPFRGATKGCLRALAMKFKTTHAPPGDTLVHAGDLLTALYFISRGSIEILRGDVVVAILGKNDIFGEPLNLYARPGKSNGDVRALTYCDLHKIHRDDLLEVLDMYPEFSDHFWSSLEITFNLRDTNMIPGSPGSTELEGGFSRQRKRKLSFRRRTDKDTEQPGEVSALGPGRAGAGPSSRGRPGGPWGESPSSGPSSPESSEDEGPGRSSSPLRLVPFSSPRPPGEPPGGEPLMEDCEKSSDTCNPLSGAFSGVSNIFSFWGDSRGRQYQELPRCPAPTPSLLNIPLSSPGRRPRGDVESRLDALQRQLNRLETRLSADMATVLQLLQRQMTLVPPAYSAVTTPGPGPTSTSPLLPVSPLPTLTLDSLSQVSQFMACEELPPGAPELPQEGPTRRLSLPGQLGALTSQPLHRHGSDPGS
On to `COc1ccc(C[C@H]2CN3C(=NC[C@@H]3C)N2CCNC(=O)CCC2CCCCC2)cc1`, for which the “hERG current change (%, negative = inhibition) at 10uM” value is listed as -69%. As to `CCOC(=O)c1nn(-c2ccc(F)cc2)c(C)c1C(C)=O`, the “hERG current change (%, negative = inhibition) at 10uM” value came out at 1.61%.

For `O=C(O)c1ccc(C(=O)O)c(C(=O)c2ccc(NC(=O)c3ccccc3)cc2)c1`, the “hERG current change (%, negative = inhibition) at 10uM” value is 8.99%. Take `O=C(Nc1ccc2ccccc2c1)C(=O)C1C(=O)Nc2ccccc21` (stereo not drawn): the “hERG current change (%, negative = inhibition) at 10uM” value was found to be 4.86%. Consider `CCOc1ccc2ccccc2c1/C=N/NC(=O)c1ccc(C)nc1`, for which the “hERG current change (%, negative = inhibition) at 10uM” value is reported as -5.49%. To `N#Cc1nc(Cc2cccc3ccccc23)oc1NCCCn1ccnc1` belongs -71%; to `COc1ccc(-c2nn(-c3ccccc3)cc2C(=O)OCC(=O)c2ccc(C)c([N+](=O)[O-])c2)cc1`, 11.4%. To `O=C(N/N=C/c1cccc(Oc2ccccc2)c1)c1ccc(O)cc1O` belongs -7.07%. Take `CCS(=O)(=O)NCC(c1cccnc1)N1CCN(c2ccccc2)CC1` (stereo not drawn): the “hERG current change (%, negative = inhibition) at 10uM” value is recorded as -28.1%. Regarding `CCN(CC)S(=O)(=O)c1cccc(-c2n[nH]c(=S)n2C(C)COC)c1` (stereo not drawn), the “hERG current change (%, negative = inhibition) at 10uM” value turned out to be 44.9%. As for `COC(=O)c1ccsc1NC(=O)c1ccco1`, the “hERG current change (%, negative = inhibition) at 10uM” value came to 13.8%. With `Cc1ccc(OCc2nnc(SCC(=O)NCc3ccccc3)n2C)cc1`, the “hERG current change (%, negative = inhibition) at 10uM” value was -34.5%. With `Cc1nc2ccc(NC(=O)Cc3ccc(Br)cc3)cc2s1`, the “hERG current change (%, negative = inhibition) at 10uM” value is listed as 6.84%. As to `O=C(Cc1ccccc1)c1c[nH]c(C(=O)NC2CCCC2)c1`, the “hERG current change (%, negative = inhibition) at 10uM” value is given as 10.1%. To `Cc1noc(C)c1S(=O)(=O)N1CCC(C(=O)N2CCC(C)CC2)CC1` belongs 0.849%; to `O=C(Nc1ccccc1C(F)(F)F)NC1CCCCCCC1`, -10.7%; to `OCC(CO)(CO)n1cnnn1`, 12.3%. To `O=C(O)CNC(=O)/C(=C/c1ccco1)NC(=O)/C=C/c1ccccc1` belongs 2.62%; to `Cc1nnc(SCC(=O)N(CC(C)C)C2CCS(=O)(=O)C2)s1` (stereo not drawn), 1.37%; to `CCCC(=O)Nc1ccc(Cc2ccc(NC(=O)CCC)c(C(=O)O)c2)cc1C(=O)O`, 13.6%. To `O=C(NN=C1CCCC1)NC1CCCCC1` belongs 3.12%; to `CCOc1ccc(-c2nnc(SCC(=O)O)n2Cc2ccccc2)cc1`, 24.6%.

Take `C[C@H](NC(=O)[C@H](Cc1ccccc1)n1c(=O)[nH]c2ccccc2c1=O)C(=O)N1CCC[C@H]1C(=O)O`: the “hERG current change (%, negative = inhibition) at 10uM” value is 14.7%.

For the compound `CC1CCN(C(=O)NC(=O)c2ccc(Cl)cc2)CC1`, the “hERG current change (%, negative = inhibition) at 10uM” value was -6%. To `CCN(C(=O)c1c(N)cnn1C)c1ccccc1` belongs -0.557%; to `Cc1cccc(Nc2n[nH]c(C)c2[N+](=O)[O-])c1`, -15.5%.

With `Cc1ccc(C)c(NC(=S)NCc2cccs2)c1`, the “hERG current change (%, negative = inhibition) at 10uM” value is recorded as -5.12%. With `O=C(CSc1nc2ccccc2c(=O)n1Cc1ccccc1)Nc1ccc(Br)cc1C(=O)O`, the “hERG current change (%, negative = inhibition) at 10uM” value is 4.08%.

On to `Cc1ccc(N(CC(=O)N2CCN(c3ccc(F)cc3)CC2)S(=O)(=O)c2c(C)nn(C)c2C)cc1`, for which the “hERG current change (%, negative = inhibition) at 10uM” value was -65.8%.

As for `O=C(CCCN1C(=O)c2cccc3cccc(c23)C1=O)N1CCN(c2ccccc2O)CC1`, the “hERG current change (%, negative = inhibition) at 10uM” value was -9.63%. In the case of `Cc1ccc(C)c(C(=O)COC(=O)c2ccc(C)c(S(=O)(=O)N3CCOCC3)c2)c1`, the “hERG current change (%, negative = inhibition) at 10uM” value is on record as -32%. Turning to `C/C(=C\C(=O)Nc1cscc1C)C(=O)O`, the “hERG current change (%, negative = inhibition) at 10uM” value is on record as 14.3%. To `COC(=O)[C@H](C)NC(=O)Nc1ccc(Oc2ccccc2)cc1` belongs 0.141%; to `Cc1cc2oc(=O)cc(CSc3nc(N)cc(N)n3)c2cc1C(C)C`, 1.55%; to `Cc1cccc(C)c1NC(=O)CCS(=O)(=O)c1ccc(Br)cc1`, 31.2%. Take `CCn1ncc(/C=N\NC(=O)c2ccc3c(c2)c(C)c(C)n3Cc2ccccc2)c1C`: the “hERG current change (%, negative = inhibition) at 10uM” value is listed as -0.323%. To `COc1ccc(OC)c(/C=C/c2c([N+](=O)[O-])c(=O)n(C)c(=O)n2C)c1` belongs -2.67%. To `COc1ccc2ccccc2c1CNC(C)c1ccccc1.O=C(O)C(=O)O` (stereo not drawn) belongs -44.4%; to `CC(OC(=O)CNC(=O)c1ccc(Br)cc1)C(=O)NC1CCCCC1C` (stereo not drawn), -3.19%. In the case of `Cc1ccc(C(=O)NCCSCc2ccc(Cl)cc2Cl)cc1[N+](=O)[O-]`, the “hERG current change (%, negative = inhibition) at 10uM” value is reported as -13.3%.

Take `COc1ccc(/C=C(\C#N)C(=O)NCCc2ccccc2)cc1OCc1ccccc1`: the “hERG current change (%, negative = inhibition) at 10uM” value is recorded as -10.9%. Turning to `COc1ccc(C(C(=O)NC(C)(C)C)N(CC2CCCO2)C(=O)CCC(=O)Nc2cc(C)on2)cc1` (stereo not drawn), the “hERG current change (%, negative = inhibition) at 10uM” value amounted to 6.44%. As for `Cc1nn(C)c(C)c1S(=O)(=O)N1CCC(CO)(CC2CCCCO2)CC1` (stereo not drawn), the “hERG current change (%, negative = inhibition) at 10uM” value turned out to be 11.9%.

As for `CCOc1cc(C(=O)N=c2sccn2C)ccc1OC(F)F`, the “hERG current change (%, negative = inhibition) at 10uM” value is on record as 21.5%. To `Cc1ccc(Nc2nc(CSc3nnc(-c4ccccc4)n3C)cs2)cc1` belongs -35.2%.

The values above are taken from PMC4336329 (PLoS ONE, 2015).
